For 34 variants, self-cleavage results are on record in the RNAGym collection of RNA variant scans (doi:10.1093/nar/gkz1192).

Read counts are not given, so values of variants with three or more changes are uncertain.

B1: CPEB3 Ribozyme (parent)
chain: UAACAGGGGGCCACAGCAGAAGCGUUCACGUCGCAGCCCCUGUCAGAUUCUGGUGAAUCUGCGAAUUCUGCUGUAUAUCUC

Variants of B1 are the subject of the data set. Briefly: self-cleavage, relative activity (ratio to wild type); higher = more cleavage; in vitro, sequencing. A digest of the protocol:
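CPEB3 self-cleaving ribozyme mutant libraries were made by rounds of error-prone PCR, barcoded, and transcribed in vitro with T7 RNA polymerase for 5 hours at 37°C. Cleavage occurred during transcription and a 15 min DNase I step before EDTA stop. RNAs were reverse transcribed with template switching and Illumina-sequenced, with DNA sequencing mapping barcodes to variants. Relative activity is the variant's cleaved/total read fraction divided by wild type's (minimum 5 reads), averaged across three batches.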
As for UAACAGGGGGCCACAGCAGAAGCGUUCACGUCGCAGCCCCGGUCAGAUUCUGGUGAAUCUGCGAAUUCUGCAGUAUACCUC [U41G U72A U78C], the self-cleavage is 0.11.

On to UAACAGGGGGCCACAGCAGAAGCGUUCACGUCGCAGCCCCCGUCAGAUUCUGGCGAAUCUGCGAAUUCAGCUGUAUAUCUC [U41C U54C U69A], for which the self-cleavage amounted to 0.53.

As to UAACAGGGGGCCACAGCAGAAGCGUUCACGUCGCAGCCCCCGACAGAUUCUGGUGAAUCUUCGAAUUCCGCUGUAUAUCUC [U41C U43A G61U U69C], the self-cleavage came out at 0.16.

For UAACAGGGGGCCACAGCAGAAGCGUUCACGUCGCAGCCCCCGGCAGAUUCUGGUGAAUCUGCGAAUUCAGUUGUAUAUCUC [U41C U43G U69A C71U], the self-cleavage was 0.27.

Regarding UAACAGGGGGCCACAGCAGAAGCGUUCACGUCGCAGCCCCCGUCAGAUUCUGGUGAAACUGCGAAUUCAGCUGUAUAUCUC [U41C U58A U69A], the self-cleavage is 0.18.

Turning to UAACAGGGGGCCACAGCAGAAGCGUUCACGUCGCAGCCCCCGUCAGAUACUGGUGAAUCUGCGAACCCUACUGUAUAUCCC [U41C U49A U66C U67C G70A U80C], the self-cleavage was determined as 0.14.

For the variant UAACAGGGGGCCACAGCAGAAGCGUUCACGUCGCAGCCCCGGUCAGAUUCUGGUGAAUCUGCGGAUUCUGCUGUAUACCUC [U41G A64G U78C], the self-cleavage is 0.14.

With UAACAGGGGGCCACAGCAGAAGCGUUCACGUCGCAGCCCCCGUCAGAUUCUGGUGAAUCUGCGAAUUACGCUGUAUAACUC [U41C C68A U69C U78A], the self-cleavage stood at 0.08.

Turning to UAACAGGGGGCCACAGCAGAAGCGUUCACGUCGCAGCCCCCGCCAGGUUCUGGUGAAUCUGCGAGUUCUGCUGUAUAUCUC [U41C U43C A47G A65G], the self-cleavage is 0.14.

For the variant UAACAGGGGGCCACAGCAGAAGCGUUCACGUCGCAGCCCCCGUCAGAUUCUGGUGAAUCCGCGGACUCUGCUGUAUAUCUC [U41C U60C A64G U66C], the self-cleavage was found to be 0.25.

Regarding UAACAGGGGGCCACAGCAGAAGCGUUCACGUCGCAGCCCCGGUCAGGUUCUGGUGAAUCUGCGAAUUCCGCUGUAUAUCUA [U41G A47G U69C C81A], the self-cleavage turned out to be 0.43.

With UAACAGGGGGCCACAGCAGAAGCGUUCACGUCGCAGCCCCGGUCAGAUUCAGGUGUGUCUGCGAAUUCUGCUGUAUAUCCC [U41G U51A A56U A57G U80C], the self-cleavage turned out to be 0.21.

Turning to UAACAGGGGGCCACAGCAGAAGCGUUCACGUCGCAGCCCCCGUCAGAUUCUGGUGAAUCUGCGAAUACUGCUGUAUUUCUC [U41C U67A A77U], the self-cleavage amounted to 0.61.

Turning to UAACAGGGGGCCACAGCAGAAGCGUUCACGUCGCAGCCCCCGUCAGAUUCAGGUGAAUCUGCGGAUUCUGCUGUAUAUCUC [U41C U51A A64G], the self-cleavage stood at 0.9.

For UAACAGGGGGCCACAGCAGAAGCGUUCACGUCGCAGCCCCCGUCAGAUACUGGUGAAUCUGCGAAUUCUGCUGUAUACCUC [U41C U49A U78C], the self-cleavage was determined as 0.65.

Turning to UAACAGGGGGCCACAGCAGAAGCGUUCACGUCGCAGCCCCCGUCAGAAUCUGGUGAACCUGCGAAUUCUGCUGUAUAUCUC [U41C U48A U58C], the self-cleavage amounted to 0.18.

For UAACAGGGGGCCACAGCAGAAGCGUUCACGUCGCAGCCCCCGUCAGAUUCUGGUGAAUCUACGAAUUCUGCUGUAUAUCAC [U41C G61A U80A], the self-cleavage turned out to be 0.92.

Regarding UAACAGGGGGCCACAGCAGAAGCGUUCACGUCGCAGCCCCCGUCAGACUCUGGUGAAUCUGCGAAUUCUGCUGGAUAUCUC [U41C U48C U74G], the self-cleavage worked out at 0.84.

Regarding UAACAGGGGGCCACAGCAGAAGCGUUCACGUCGCAGCCCCCGUCAGAUUCUGGUGAAUCUGCUAAUUCUGCCGUAUAUCUU [U41C G63U U72C C81U], the self-cleavage was found to be 1.25.

UAACAGGGGGCCACAGCAGAAGCGUUCACGUCGCAGCCCCGGUCAGAUUCUGGUGAAUCUGCGAAUACUGCCGUAUACCUC [U41G U67A U72C U78C]: the self-cleavage came out at 0.18.

With UAACAGGGGGCCACAGCAGAAGCGUUCACGUCGCAGCCCCGGUCAGGUUCUGGUGAUUCUGCGAAUUCGGCUGUAUAUCUC [U41G A47G A57U U69G], the self-cleavage came to 0.21.

On to UAACAGGGGGCCACAGCAGAAGCGUUCACGUCGCAGCCCCCGACAGAUCCUGGUGAAUCUGCGAAUUCUGCUGUGUAUCUC [U41C U43A U49C A75G], for which the self-cleavage was found to be 0.16.

For the variant UAACAGGGGGCCACAGCAGAAGCGUUCACGUCGCAGCCCCGGUCAGGUACUGGUGAAUCUGCGAAUUCUGCUGUAUAUCUC [U41G A47G U49A], the self-cleavage was found to be 0.21.

In the case of UAACAGGGGGCCACAGCAGAAGCGUUCACGUCGCAGCCCCCGUCAGAUUCUGGCGAGUCUGCGAAAUCUGCUGUAUAGCUC [U41C U54C A57G U66A U78G], the self-cleavage was 0.21.

As for UAACAGGGGGCCACAGCAGAAGCGUUCACGUCGCAGCCCCGGUCAGAUUCUGGUGAGUCUGCGAAUUCUGCCGUAUAUCUC [U41G A57G U72C], the self-cleavage came out at 0.21.

As for UAACAGGGGGCCACAGCAGAAGCGUUCACGUCGCAGCCCCCGUCAGAUUCUGGUGAAUCUGUGAAUUCUGCCGUAUAUCAC [U41C C62U U72C U80A], the self-cleavage was found to be 0.21.

Consider UAACAGGGGGCCACAGCAGAAGCGUUCACGUCGCAGCCCCCAACAGAUUCUGGUGAACCCGCGAAUUCUGCUGUAUAUCUC [U41C G42A U43A U58C U60C], for which the self-cleavage is 0.09.

Regarding UAACAGGGGGCCACAGCAGAAGCGUUCACGUCGCAGCCCCCGUCAGAUCCUGGUGAAUCUACGAAUUCUGCAGUAUAUCUC [U41C U49C G61A U72A], the self-cleavage amounted to 0.14.

As for UAACAGGGGGCCACAGCAGAAGCGUUCACGUCGCAGCCCCCGUCAUAUUCUGGUGAAUCUGCGAAUUCUGCUGAAUAUCUC [U41C G46U U74A], the self-cleavage amounted to 0.53.

Regarding UAACAGGGGGCCACAGCAGAAGCGUUCACGUCGCAGCCCCCGACAGGUUCUGGUGAAUCCGCGAAUUCUGCUGUAUAUCUC [U41C U43A A47G U60C], the self-cleavage is 0.19.

In the case of UAACAGGGGGCCACAGCAGAAGCGUUCACGUCGCAGCCCCCGUCAGAUUCUGGUGAAUCCGCAAAUUCAGCUGUAUAUCUC [U41C U60C G63A U69A], the self-cleavage worked out at 0.32.

UAACAGGGGGCCACAGCAGAAGCGUUCACGUCGCAGCCCCCGUCAGAUUCUGGUGAAUCAGCGAAUUCUGUUGUAUAUCUC [U41C U60A C71U]: the self-cleavage came to 0.43.

On to UAACAGGGGGCCACAGCAGAAGCGUUCACGUCGCAGCCCCCGUCAGAUUCUGUUGAAUCCGCGAAUUCUGCUGUAUAUCUC [U41C G53U U60C], for which the self-cleavage amounted to 0.89.

As for UAACAGGGGGCCACAGCAGAAGCGUUCACGUCGCAGCCCCCGUCAGAUUAUGGUGAAUCUGCGAAUCCCGCUGUAUAUCUC [U41C C50A U67C U69C], the self-cleavage is 0.19.
